Experimental data taken from the supplement of paper PMC11741623.
This is one part of the list. Interaction screen of human proteins with wild-type SARS-CoV-2 proteins by split-DHFR complementation in yeast, 1 µg/mL methotrexate. Value = fitness of the pair (three or more lineages) minus that of the viral protein without a human partner, on a scale set by negative (0) and fused positive (1) controls, mean of up to three cultures; higher = more likely to interact. Active = false discovery rate below 0.05 (one-sided t-test) in at least one culture. Nearly all pairs are not hits, and differences among them are mostly noise (correlation between cultures about 0.3); most hits were seen in one culture only. Human sequences are the Swiss-Prot entries looked up by gene name; the clone may be another isoform. NSP2 values were corrected by the authors for a growth advantage. Listed are human proteins with a hit and a random twelfth of the others.

Key:
Experiment in all cases: yeast fitness gain over the viral ORF with no human partner (scaled fitness); higher = more likely to interact
[1] = molecular target: SARS-CoV-2 M
Experimental: (§1)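 Split mouse DHFR complementation in pooled diploid yeast: human ORFeome clones carry one fragment and viral ORFs the other; barcoded lineages compete in 1 µg/mL methotrexate and fitness is read by barcode sequencing in up to three cultures.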

[2] = molecular target: SARS-CoV-2 NSP1
Experimental: as §1

[3] = molecular target: SARS-CoV-2 NSP12
Experimental: as §1

[4] = molecular target: SARS-CoV-2 NSP13
Experimental: as §1

[5] = molecular target: SARS-CoV-2 NSP15
Experimental: as §1

[6] = molecular target: SARS-CoV-2 NSP2
Experimental: as §1

[7] = molecular target: SARS-CoV-2 NSP5
Experimental: as §1

[8] = molecular target: SARS-CoV-2 NSP6
Experimental: as §1

[9] = molecular target: SARS-CoV-2 ORF10
Experimental: as §1

[10] = molecular target: SARS-CoV-2 ORF3B
Experimental: as §1

[11] = molecular target: SARS-CoV-2 ORF6
Experimental: as §1

[12] = molecular target: SARS-CoV-2 ORF7B
Experimental: as §1

[13] = molecular target: SARS-CoV-2 ORF8
Experimental: as §1

[14] = molecular target: SARS-CoV-2 ORF9B
Experimental: as §1

[15] = molecular target: SARS-CoV-2 ORF9Bwu (the 73-codon ORF)
Experimental: as §1

[16] = molecular target: SARS-CoV-2 S
Experimental: as §1

[17] = molecular target: SARS-CoV-2 N
Experimental: as §1

[18] = molecular target: SARS-CoV-2 NSP10
Experimental: as §1

[19] = molecular target: SARS-CoV-2 NSP14
Experimental: as §1

[20] = molecular target: SARS-CoV-2 NSP8
Experimental: as §1

[21] = molecular target: SARS-CoV-2 ORF7A
Experimental: as §1

[22] = molecular target: SARS-CoV-2 NSP16
Experimental: as §1

[23] = molecular target: SARS-CoV-2 NSP7
Experimental: as §1

[24] = molecular target: SARS-CoV-2 ORF3A
Experimental: as §1

[25] = molecular target: SARS-CoV-2 NSP9
Experimental: as §1

Measured: yeast fitness gain

B1: WDR37, Q9Y2I8 (protein)
chain: MPTESASCSTARQTKQKRKSHSLSIRRTNSSEQERTGLPRDMLEGQDSKLPSSVRSTLLELFGQIEREFENLYIENLELRREIDTLNERLAAEGQAIDGAELSKGQLKTKASHSTSQLSQKLKTTYKASTSKIVSSFKTTTSRAACQLVKEYIGHRDGIWDVSVAKTQPVVLGTASADHTALLWSIETGKCLVKYAGHVGSVNSIKFHPSEQLALTASGDQTAHIWRYAVQLPTPQPVADTSISGEDEVECSDKDEPDLDGDVSSDCPTIRVPLTSLKSHQGVVIASDWLVGGKQAVTASWDRTANLYDVETSELVHSLTGHDQELTHCCTHPTQRLVVTSSRDTTFRLWDFRDPSIHSVNVFQGHTDTVTSAVFTVGDNVVSGSDDRTVKVWDLKNMRSPIATIRTDSAINRINVCVGQKIIALPHDNRQVRLFDMSGVRLARLPRSSRQGHRRMVCCSAWSEDHPVCNLFTCGFDRQAIGWNINIPALLQEK
inactive: [1] 0.117 | [2] -0.108 | [3] 0.151 | [4] -0.0429 | [5] -0.199 | [6] -0.269 | [7] 0.0274 | [8] 0.0268 | [9] -0.154 | [10] -0.0872 | [11] -0.0336 | [12] -0.00909 | [13] -0.0081 | [14] -0.001 | [15] -0.0364 | [16] -0.093

B2: IFLTD1, Q8N9Z9 (protein)
chain: MLEGSWINRREDKLGVYSLVHFSPKMLGSVATTLPLSSSNSSGMPLGYYLSSPQISRVTISTTGQLTSKATVGSCSRVENSLDASPFSVPKKQDESPMIGDGEDYFLSLFGDSKKLTAHSNYTQKTLKYFSMILEEVGQFTSSSLGDVEIAEVNVKGLFVKLINSSLDKEMAIGDHILQQNVNGQTISLYRFLPNIVMQANSTVTVWAAASEAKHQPPSDFLWKEQDKFRASPDCITILCKPNGQAIAWYTPIHWKQAWEKLDADVEFNRCSVVSPTFRKRVFQWTASTATITKEKQDQPKKDISNYQVEQAQVLLKREKEIPPTVFPNRSPWCQNPYVSAHPYCPLIEPHNTSTAGGRLDRQPRTRSTRPNRASGSKKKKTSESQKQ
inactive: [17] 0.01 | [18] -0.0495 | [3] -0.0735 | [4] -0.141 | [19] -0.00747 | [6] -0.246 | [20] -0.0374 | [9] -0.108 | [21] 0.0149 | [12] -0.0165 | [13] 0.0321 | [14] -0.0231 | [16] -0.209

B3: INSL3, P51460 (protein)
chain: MDPRLPAWALVLLGPALVFALGPAPTPEMREKLCGHHFVRALVRVCGGPRWSTEARRPATGGDRELLQWLERRHLLHGLVADSNLTLGPGLQPLPQTSHHHRHHRAAATNPARYCCLSGCTQQDLLTLCPY
inactive: [17] 0.0223 | [2] 0.00701 | [18] -0.0214 | [3] -0.021 | [4] -0.169 | [5] -0.0785 | [22] -0.0849 | [6] -0.186 | [7] -0.0314 | [8] 0.0246 | [23] -0.0488 | [20] -0.0189 | [9] 0.0423 | [10] 0.0187 | [11] 0.0179 | [21] -0.0344 | [12] -0.0449 | [13] -0.116 | [14] 0.0337 | [15] 0.0261 | [16] -0.147

B4: VPS37A, Q8NEZ2 (protein)
chain: MSWLFPLTKSASSSAAGSPGGLTSLQQQKQRLIESLRNSHSSIAEIQKDVEYRLPFTINNLTININILLPPQFPQEKPVISVYPPIRHHLMDKQGVYVTSPLVNNFTMHSDLGKIIQSLLDEFWKNPPVLAPTSTAFPYLYSNPSGMSPYASQGFPFLPPYPPQEANRSITSLSVADTVSSSTTSHTTAKPAAPSFGVLSNLPLPIPTVDASIPTSQNGFGYKMPDVPDAFPELSELSVSQLTDMNEQEEVLLEQFLTLPQLKQIITDKDDLVKSIEELARKNLLLEPSLEAKRQTVLDKYELLTQMKSTFEKKMQRQHELSESCSASALQARLKVAAHEAEEESDNIAEDFLEGKMEIDDFLSSFMEKRTICHCRRAKEEKLQQAIAMHSQFHAPL
inactive: [1] 0.0736 | [17] -0.113 | [2] 0.139 | [18] -0.0967 | [3] -0.0265 | [4] 0.000597 | [6] -0.196 | [20] 0.0268 | [9] -0.0519 | [24] 0.0692 | [10] -0.0246 | [11] -0.00251 | [12] 0.0606 | [13] 0.0757 | [14] 0.027

B5: UBXN4, Q92575 (protein)
chain: MLWFQGAIPAAIATAKRSGAVFVVFVAGDDEQSTQMAASWEDDKVTEASSNSFVAIKIDTKSEACLQFSQIYPVVCVPSSFFIGDSGIPLEVIAGSVSADELVTRIHKVRQMHLLKSETSVANGSQSESSVSTPSASFEPNNTCENSQSRNAELCEIPPTSDTKSDTATGGESAGHATSSQEPSGCSDQRPAEDLNIRVERLTKKLEERREEKRKEEEQREIKKEIERRKTGKEMLDYKRKQEEELTKRMLEERNREKAEDRAARERIKQQIALDRAERAARFAKTKEEVEAAKAAALLAKQAEMEVKRESYARERSTVARIQFRLPDGSSFTNQFPSDAPLEEARQFAAQTVGNTYGNFSLATMFPRREFTKEDYKKKLLDLELAPSASVVLLPAGRPTASIVHSSSGDIWTLLGTVLYPFLAIWRLISNFLFSNPPPTQTSVRVTSSEPPNPASSSKSEKREPVRKRVLEKRGDDFKKEGKIYRLRTQDDGEDENNTWNGNSTQQM
inactive: [17] 0.0552 | [19] -0.0267 | [5] -0.0686 | [22] 0.123 | [8] -0.0324 | [25] -0.00409 | [24] -0.0308 | [21] -0.0436 | [15] 0.00644
